Assay results reported in PubChem BioAssay AID686979 (National Center for Advancing Translational Sciences (NCATS), 2013).
The campaign covered roughly 420,000 compounds. About 50,000 (12%) were called active. Inconclusive results, whose numbers are uncertain, are shown with a selection of clear calls. Calls come from the whole dose curve; as a rule, active = well fitted inhibition curve with a large enough effect; inconclusive = small, poorly fitted or top-dose-only effect; inactive = flat fitted curve, though single readings scatter. Potencies of inconclusive entries are left out as doubtful fits.

assay: qHTS for Inhibitors of human tyrosyl-DNA phosphodiesterase 1 (TDP1): qHTS in cells in presence of CPT; details: chicken DT40 Tdp1-/-;hTDP1 cells + 20 nM CPT, ATP luminescence, 48 h; activity change, negative = growth inhibition: at 46.2 µM (top of the series) unless noted; note: nearly all actives have a fitted effect of over 55% in size
Outline: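 Chicken DT40 Tdp1-/- cells stably complemented with human TDP1 were seeded at 400 cells/well in medium containing 20 nM camptothecin, exposed to pin-transferred compounds, and grown at 37 °C for at least 48 hr. Viability was read as ATP luminescence.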
% is set by controls: 0 for no effect and ±100 for the full control effect; potency is the fitted concentration of half-maximal effect; tags give direction and shape of the fitted curve.

| Structure (SMILES) | Potency | activity change, negative = growth inhibition |
| --- | --- | --- |
| O=C(NNc1cc(Cl)ccc1Cl)C1CCC1 | inconclusive [inhibitor, single point] | – |
| COc1cccc(C(c2sc3nc(-c4ccco4)nn3c2O)N2CCC(O)CC2)c1 (stereo not given) | inactive | – |
| COc1cccc(C=NNc2nnc(NN=Cc3cccc(OC)c3OC)c3ccccc23)c1OC | active: 23.1 µM | – |
| COc1ccc2oc3c(ccc[n+]3C)c(=O)c2c1 | inactive | – |
| c1ccc(CN2CCC(N3CCN(Cc4ccc5c(c4)OCO5)CC3)CC2)cc1 | inconclusive [inhibitor, single point] | – |
| Cc1cc(C)cc(NC(=O)CSc2nc3c(oc4ccccc43)c(=O)n2-c2ccccc2F)c1 | inconclusive [inhibitor, single point] | – |
| NS(=O)(=O)c1ccc(CCNC(=O)CNC(=O)c2ccccc2F)cc1 | inactive | – |
| COc1ccccc1N(CC(=O)N1CCCC1)S(=O)(=O)c1ccc(C)cc1 | inactive | – |
| COc1cc(/C=N/NC(=O)c2cncc(Br)c2)cc([N+](=O)[O-])c1O | inconclusive [inhibitor, single point] | – |
| CC1CCN(CCc2nc3cc(NC(=O)COc4ccc([N+](=O)[O-])cc4)ccc3n2C)CC1 | active: 16.4 µM | – |
| COC(C[C@H]1O[C@@H]1C(=O)COCc1ccccc1)OC | active: 4.11 µM | – |
| Cc1c(C(=O)CN2CCOCC2)[nH]c2ccccc12 | inconclusive [inhibitor, single point] | – |
| O=C(COC(=O)CCc1nc2ccccc2n1-c1ccccc1)Nc1cccc(Cl)c1 | inconclusive [inhibitor, single point] | – |
| CCc1cccc(OCC(=O)Nc2ccc(S(=O)(=O)Nc3cc(C)nc(C)n3)cc2)c1 | inactive | – |
| COc1ccc(F)cc1S(=O)(=O)NCCc1c(C)[nH]c2c(Cl)cccc12 | inconclusive [inhibitor, single point] | – |
| COc1ccc(OC)c(CCNC(=O)c2ccc3c(c2)N(Cc2ccc(C)cc2)CCS3)c1 | inconclusive [inhibitor, single point] | – |
| CC(C)(C)OC(=O)NCCCCCNC(=O)c1[nH]cnc1C(=O)N[C@@H](Cc1ccccc1)C(=O)OCc1ccccc1 | inconclusive [inhibitor, single point] | – |
| Cc1ccc(NC(=O)c2ccc(-c3nn(C)c(=O)c4ccccc34)cc2)cc1 | active: 20.6 µM | – |
| O=c1c2ccccc2nc(-c2ccco2)n1/N=C/c1ccco1 | inconclusive [inhibitor, single point] | – |
| Cc1cccc(NS(=O)(=O)c2cc3c4c(c2)CCC(=O)N4CCC3)c1 | inconclusive [inhibitor, single point] | – |
| CC(=O)O[C@@H]1[C@H]2[C@@H](C[C@@H](C)[C@@H]3C=CC(=O)[C@@]13C)OC(=O)[C@@H]2C | inconclusive [inhibitor, partial curve, poor fit] | – |
| CC(=O)N1CCN(c2ccc(NC(=O)c3ccc(Br)o3)cc2Cl)CC1 | active: 16.4 µM | – |
| O=c1[nH]n(CC2COC3(CCCCC3)O2)c(=O)c2ccccc12 (stereo not given) | inconclusive [inhibitor, partial curve] | – |
| Cc1c(NC(=O)c2ccc(S(=O)(=O)N(C)C)cc2)cccc1-n1cnnn1 | inactive | – |

| Structure (SMILES) | Potency | activity change, negative = growth inhibition |
| --- | --- | --- |
| CCN(CC(=O)NCc1cccs1)C(=O)c1ccc(S(=O)(=O)Nc2ccccc2C)cc1 | inconclusive [inhibitor, single point] | – |
| C(=NN=C1c2ccccc2-c2ccccc21)c1ccc2c(c1)OCO2 | inconclusive [inhibitor, single point] | – |
| CCN(CC(=O)NCc1cccs1)S(=O)(=O)c1ccc(C(C)C)cc1 | inconclusive [inhibitor, single point] | – |
| CCCNC(=S)Nc1ccc(Cl)cc1Cl | inactive | – |
| COc1ccc(Nc2cc(C(=O)NCCc3ccc(C)cc3)c3ccccc3n2)c(OC)c1 | inconclusive [inhibitor, single point] | – |
| Cc1nnc(NCc2cccc(Cl)c2)c2ccccc12 | inconclusive [inhibitor, single point] | – |
| CC(C)/C=N/NC(=O)c1cccc(N2CCCC2=O)c1 | inactive | – |
| O=C(N/N=C/c1ccc(-c2cccc([N+](=O)[O-])c2)o1)c1ccc([N+](=O)[O-])cc1 | inconclusive [inhibitor, single point] | – |
| O=C(CCC1CCCN(C(=O)c2cncs2)C1)NCc1ccc(F)c(F)c1 (stereo not given) | inconclusive [inhibitor, single point] | – |
| Cc1ccc(C2=NS(=O)(=O)N(C)C(C(=O)Nc3cc(C)n(CC(=O)N4CCC(C)CC4)n3)=C2)cc1 | inconclusive [inhibitor, single point] | – |
| Cc1ccc(-c2nnc(Nc3ccc(O)cc3)c3ccccc23)cc1S(=O)(=O)N1CCN(C)CC1 | inconclusive [inhibitor, single point] | – |
| CCCCOc1ccc(C(=O)Nc2nnc3n2CCS3)cc1 | inconclusive [inhibitor, single point] | – |
| COc1ccc(CC(=O)NCc2nnc(SCCOc3ccccc3)n2C)cc1 | inconclusive [inhibitor, single point] | – |
| COc1cccc(CN(C)S(=O)(=O)c2ccccc2Br)c1 | inactive | – |
| CCOCCCNC(=O)C1CCN(c2nn3cc(-c4ccc(F)cc4)nc3s2)CC1 | active: 20.6 µM | – |
| Cn1c(=O)c2c(-c3ccccc3)n(-c3ccccc3N)cc2n(C)c1=O | inconclusive [inhibitor, partial curve] | – |
| O=C(Nc1cccc(S(=O)(=O)N2CCOCC2)c1)c1ccc(Cl)nc1 | active: 16.4 µM | – |
| Cc1cc(=O)n2nc(N3CCC(C(=O)NC(C)c4ccccc4)CC3)sc2n1 (stereo not given) | inconclusive [inhibitor, single point] | – |
| COc1ccccc1CNS(=O)(=O)c1cc(C)ccc1OC | inactive | – |
| CCCn1c2ccccc2c2cnn(CC(=O)NCCc3ccc(OCC)cc3)c(=O)c21 | inconclusive [inhibitor, single point] | – |
| COc1ccc(-c2[nH]ncc2/C=N/NC(=O)c2cc(Br)ccc2O)c(OC)c1 | inconclusive [inhibitor, single point] | – |
| Cc1ccc(Cl)cc1N1CCN(C(=O)Cn2ccc3ccccc3c2=O)CC1 | active: 16.4 µM | – |
| c1ccc(Sc2nc(N3CCCCC3)nc(N3CCCCC3)n2)nc1 | inconclusive [inhibitor, full curve] | – |
| O=C(CSc1ncc(C(F)(F)F)cc1Cl)N1CCN(S(=O)(=O)c2ccc3ccccc3c2)CC1 | inconclusive [inhibitor, single point] | – |

| Structure (SMILES) | Potency | activity change, negative = growth inhibition |
| --- | --- | --- |
| COc1cccc(-c2cnc3c(NC=O)cc(-c4cccc(NC(C)=O)c4)cn23)c1 | active: 18.4 µM | – |
| CS(=O)(=O)Nc1cccc(-c2ccc3nncn3c2)c1 | inactive | – |
| COc1ccc(-c2ocnc2C(=O)N2CCN(C(c3ccccc3)c3ccccc3)CC2)cc1 | inconclusive [inhibitor, single point] | – |
| O=C(Nc1ccn(-c2ccccc2)n1)c1ccccc1Br | inconclusive [inhibitor, single point] | – |
| O=C(C[n+]1ccccc1)NNc1ccccc1 | inactive | – |
| Cc1cccc2sc(NNC(=O)c3ccc4c(c3)OCCO4)nc12 | inconclusive [inhibitor, single point] | – |
| Cc1cccc(S(=O)(=O)NCCC(=O)OCC(=O)Nc2ccc(C#N)cc2)c1 | inactive | – |
| Fc1ccc2nc(Nc3nc4c(F)cc(F)cc4s3)sc2c1 | active: 16.4 µM | – |
| COc1ccc(N(S(=O)(=O)c2ccccc2)S(=O)(=O)c2ccccc2)c(N)c1 | inconclusive [inhibitor, single point] | – |
| NC(=O)c1cccc(-c2coc3c(C(=O)NCCc4ccccc4)cccc23)c1 | inconclusive [inhibitor, single point] | – |
| COc1cc(-c2noc(-c3ccc(NCc4ccccc4)c([N+](=O)[O-])c3)n2)cc(OC)c1OC | inconclusive [inhibitor, partial curve] | – |
| Cc1ccc(C(=O)NCCc2ccc(Cl)cc2)cc1-n1c(C)nc2cccnc21 | inconclusive [inhibitor, single point] | – |
| COc1ccc2oc(C(=O)OCC(=O)N(C)CC(=O)Nc3ccc(C)cc3)c(C)c2c1 | inactive | – |
| COc1cccc(OC)c1C(=O)N1CCN(Cc2c[nH]c3ccccc23)CC1 | inactive | – |
| O=S(=O)(Nc1ccccc1Br)c1cccc2cccnc12 | inactive | – |
| C/C(=N\NC(=O)CSCc1ccccc1Cl)c1cccc(NC(=O)c2ccccc2)c1 | inconclusive [inhibitor, single point] | – |
| COc1cc(C(=O)Oc2cccc(C=O)c2)cc(OC)c1OC | active: 25.9 µM | – |
| Cn1cccc1/C=N/N1CCN(Cc2cccc3ccccc23)CC1 | inconclusive [inhibitor, single point] | – |
| Cc1ccc(C)c(Cn2c3ccccc3c3cnn(CC(=O)NCCC4=CCCCC4)c(=O)c32)c1 | inactive | – |
| CCC(C)NC(=O)c1cc2c(=O)n(CC)c3ccccc3c2s1 (stereo not given) | inconclusive [inhibitor, single point] | – |
| COc1ccc(Cl)cc1NS(=O)(=O)c1cn(C)nc1C | inactive | – |
| COC(=O)c1ccc(NC(=S)NC(=O)c2c(Cl)cnn2C)cc1 | – | inconclusive: -30.7% [inhibitor] |
